The results in this text go back to article PMC12820563, “FoxP3 forms a head-to-head dimer in vivo and stabilizes its multimerization on adjacent microsatellites”.

The other results are listed elsewhere or left out.

The target in the experiment is T1, MBP-FoxP1dN (Mus musculus, UniProt P58462 326-579).
T1 sequence: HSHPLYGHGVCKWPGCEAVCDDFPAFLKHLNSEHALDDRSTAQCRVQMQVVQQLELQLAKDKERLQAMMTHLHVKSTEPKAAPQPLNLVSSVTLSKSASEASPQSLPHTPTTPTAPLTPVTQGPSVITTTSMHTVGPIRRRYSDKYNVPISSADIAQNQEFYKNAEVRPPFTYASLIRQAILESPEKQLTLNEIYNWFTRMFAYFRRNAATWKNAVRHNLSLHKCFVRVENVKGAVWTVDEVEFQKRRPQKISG
The experiment in a line: PD-seq (MBP pull-down with sequencing); 20 mM Tris-HCl pH 7.5, 100 mM NaCl, 1.5 mM MgCl2, 0.4 uM protein, 0.1 uM dsDNA library, 30 min, room temperature, amylose pull-down; high values mean tight binding. The note with it: protein: recombinant; tags: His6-MBP; chain copies: 2; dsDNA, one strand shown. Summed up:
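Amylose resin was used to capture complexes formed during 30 min at room temperature in Tris pH 7.5 buffer with NaCl and MgCl2 between 0.4 µM His6-MBP-tagged mouse FoxP3 or FoxP1 fragment lacking the N-terminus, expressed in E. coli, and 0.1 µM Klenow-filled double-stranded degenerate DNA library. After three washes, the DNA was released with proteinase K, barcoded by PCR and sequenced on Illumina. Binding is pooled-replicate reads-per-million enrichment, pull-down over input.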
Regarding “GATGATTGTTCTCCCAGCTGATGAATTATGGAGTTCGAGTAAACAAATTTTCCTAATCTTTCTGTTCAAGCGCCATCTAC”, the binding signal was 0.883 RPM ratio (pull-down/input).
Under “GATGATTGTTCTCCCAGCTGATGAATTCAAGTTTTCGAGTAAACAAATTTTCCTAATCTTTCTGTTCAAGCGCCATCTAC” stands 1.01 RPM ratio (pull-down/input); under “GATGATTGTTCTCCCAGCTGATGAATTGACAACATCGAGTAAACAAATTTTCCTAATCTTTCTGTTCAAGCGCCATCTAC”, 2.29 RPM ratio (pull-down/input); under “GATGATTGTTCTCCCAGCTGATGAATTGCCAATTTCGAGTAAACAAATTTTCCTAATCTTTCTGTTCAAGCGCCATCTAC”, 1.04 RPM ratio (pull-down/input).
Consider “GATGATTGTTCTCCCAGCTGATGAATTCAAGAGGTCGAGTAAACAAATTTTCCTAATCTTTCTGTTCAAGCGCCATCTAC”, for which the binding signal is 0.817 RPM ratio (pull-down/input).
Under “GATGATTGTTCTCCCAGCTGATGAATTTGGTCATTCGAGTAAACAAATTTTCCTAATCTTTCTGTTCAAGCGCCATCTAC” stands 1.01 RPM ratio (pull-down/input); under “GATGATTGTTCTCCCAGCTGATGAATTCCGAGGGTCGAGTAAACAAATTTTCCTAATCTTTCTGTTCAAGCGCCATCTAC”, 0.691 RPM ratio (pull-down/input).
Under “GATGATTGTTCTCCCAGCTGATGAATTAAAGCACTCGAGTAAACAAATTTTCCTAATCTTTCTGTTCAAGCGCCATCTAC” stands 0.949 RPM ratio (pull-down/input); under “GATGATTGTTCTCCCAGCTGATGAATTAATTTACTCGAGTAAACAAATTTTCCTAATCTTTCTGTTCAAGCGCCATCTAC”, 1.17 RPM ratio (pull-down/input); under “GATGATTGTTCTCCCAGCTGATGAATTCGGGCAGTCGAGTAAACAAATTTTCCTAATCTTTCTGTTCAAGCGCCATCTAC”, 0.824 RPM ratio (pull-down/input).
Under “GATGATTGTTCTCCCAGCTGATGAATTTACGGACTCGAGTAAACAAATTTTCCTAATCTTTCTGTTCAAGCGCCATCTAC” stands 1 RPM ratio (pull-down/input); under “GATGATTGTTCTCCCAGCTGATGAATTTGCTTGCTCGAGTAAACAAATTTTCCTAATCTTTCTGTTCAAGCGCCATCTAC”, 1.13 RPM ratio (pull-down/input); under “GATGATTGTTCTCCCAGCTGATGAATTTCATGGTTCGAGTAAACAAATTTTCCTAATCTTTCTGTTCAAGCGCCATCTAC”, 0.885 RPM ratio (pull-down/input).
“GATGATTGTTCTCCCAGCTGATGAATTTCGTGACTCGAGTAAACAAATTTTCCTAATCTTTCTGTTCAAGCGCCATCTAC”: the binding signal was 0.951 RPM ratio (pull-down/input).
Under “GATGATTGTTCTCCCAGCTGATGAATTAAGAGGGTCGAGTAAACAAATTTTCCTAATCTTTCTGTTCAAGCGCCATCTAC” stands 0.798 RPM ratio (pull-down/input); under “GATGATTGTTCTCCCAGCTGATGAATTTGCGTTCTCGAGTAAACAAATTTTCCTAATCTTTCTGTTCAAGCGCCATCTAC”, 1.11 RPM ratio (pull-down/input); under “GATGATTGTTCTCCCAGCTGATGAATTTCATAGTTCGAGTAAACAAATTTTCCTAATCTTTCTGTTCAAGCGCCATCTAC”, 0.871 RPM ratio (pull-down/input).
Under “GATGATTGTTCTCCCAGCTGATGAATTGAGACCCTCGAGTAAACAAATTTTCCTAATCTTTCTGTTCAAGCGCCATCTAC” stands 0.781 RPM ratio (pull-down/input).
Under “GATGATTGTTCTCCCAGCTGATGAATTCACGCACTCGAGTAAACAAATTTTCCTAATCTTTCTGTTCAAGCGCCATCTAC” stands 1.1 RPM ratio (pull-down/input); under “GATGATTGTTCTCCCAGCTGATGAATTTTGCGGTTCGAGTAAACAAATTTTCCTAATCTTTCTGTTCAAGCGCCATCTAC”, 0.956 RPM ratio (pull-down/input); under “GATGATTGTTCTCCCAGCTGATGAATTCGGTCGATCGAGTAAACAAATTTTCCTAATCTTTCTGTTCAAGCGCCATCTAC”, 0.869 RPM ratio (pull-down/input).
Consider “GATGATTGTTCTCCCAGCTGATGAATTACCATTCTCGAGTAAACAAATTTTCCTAATCTTTCTGTTCAAGCGCCATCTAC”, for which the binding signal was 1.02 RPM ratio (pull-down/input).
Under “GATGATTGTTCTCCCAGCTGATGAATTGGCGATTTCGAGTAAACAAATTTTCCTAATCTTTCTGTTCAAGCGCCATCTAC” stands 0.865 RPM ratio (pull-down/input).
Under “GATGATTGTTCTCCCAGCTGATGAATTGATCACATCGAGTAAACAAATTTTCCTAATCTTTCTGTTCAAGCGCCATCTAC” stands 1.25 RPM ratio (pull-down/input); under “GATGATTGTTCTCCCAGCTGATGAATTACACCTGTCGAGTAAACAAATTTTCCTAATCTTTCTGTTCAAGCGCCATCTAC”, 1.08 RPM ratio (pull-down/input).
Take “GATGATTGTTCTCCCAGCTGATGAATTCACGGACTCGAGTAAACAAATTTTCCTAATCTTTCTGTTCAAGCGCCATCTAC”: the binding signal was 0.808 RPM ratio (pull-down/input).
As for “GATGATTGTTCTCCCAGCTGATGAATTAGGATGGTCGAGTAAACAAATTTTCCTAATCTTTCTGTTCAAGCGCCATCTAC”, the figure is 0.877 RPM ratio (pull-down/input); as for “GATGATTGTTCTCCCAGCTGATGAATTAGCATATTCGAGTAAACAAATTTTCCTAATCTTTCTGTTCAAGCGCCATCTAC”, 1.07 RPM ratio (pull-down/input); as for “GATGATTGTTCTCCCAGCTGATGAATTCATACACTCGAGTAAACAAATTTTCCTAATCTTTCTGTTCAAGCGCCATCTAC”, 1.11 RPM ratio (pull-down/input).
Under “GATGATTGTTCTCCCAGCTGATGAATTGGTTACGTCGAGTAAACAAATTTTCCTAATCTTTCTGTTCAAGCGCCATCTAC” stands 1.04 RPM ratio (pull-down/input).
As for “GATGATTGTTCTCCCAGCTGATGAATTTGTATCTTCGAGTAAACAAATTTTCCTAATCTTTCTGTTCAAGCGCCATCTAC”, the figure is 1.6 RPM ratio (pull-down/input).
As for “GATGATTGTTCTCCCAGCTGATGAATTGTATAGATCGAGTAAACAAATTTTCCTAATCTTTCTGTTCAAGCGCCATCTAC”, the binding signal is 1.15 RPM ratio (pull-down/input).
